Experimental findings from PubChem BioAssay AID256 (DTP/NCI, 2004) are described below.

In this assay the test system is CD2F1 mice, L1210 leukemia ip, survival T/C. Nature of the assay: NCI In Vivo Anticancer Drug Screen. Data for tumor model L1210 Leukemia (intraperitoneal) in CD2F1 (CDF1) mice. The following applies: higher = longer survival. As for the experimental part: The antitumor activity of compounds was measured in mice bearing transplantable tumors. Survival or tumor size were measured and the results are expressed as the measurement made in the treated group (T) divided by the measurement made in the vehicle treated control group (C). The tumor model used in this assay is L1210 Leukemia (intraperitoneal) in CD2F1 (CDF1) mice

Structures are written as SMILES. Inconclusive results and toxic doses are left out. The source holds more than one record for some entries. The list is limited to them. An entry can have further records. The records of an entry are repeated measurements (runs, samples, wells, individuals or studies). A tag in brackets gives the origin of a value. Letters hold for one entry only.

As to `CCOC(=O)c1ccc(N)cc1`, the T/C (endpoint: mean survival time, dose: 100.0 mg/kg/injection, schedule: Q01DX001 (ip), vehicle: saline with Tween-80) is 102 % of control and 182 % of control.
Consider `CN(CCO)C1=C(N2CC2)C(=O)C(N(C)CCO)=C(N2CC2)C1=O`, for which the T/C (endpoint: mean survival time, dose: 2.0 mg/kg/injection, schedule: Q01DX009 (ip), vehicle: saline) was 100 % of control and 158 % of control.
For the compound `Cn1cnc([N+](=O)[O-])c1[Se]c1nc(N)nc2c1ncn2C1OC(CO)C(O)C1O` (stereo not drawn), for the setting “endpoint: mean survival time, dose: 32.0 mg/kg/injection, schedule: Q01DX009 (ip), vehicle: distilled water + Tween-80”, the T/C was 111 % of control and 150 % of control.
`O=CC(NC(=O)N(CCCl)N=O)C(O)C(O)C(O)CO` (stereo not drawn): the T/C was 124 % of control and 150 % of control (endpoint: mean survival time, dose: 2.5 mg/kg/injection, schedule: Q04DX002 (ip), vehicle: saline); 551 % of control, 597 % of control [sample A] and 239 % of control, 552 % of control, 804 % of control [sample B] (endpoint: mean survival time, dose: 24.0 mg/kg/injection, schedule: Q01DX001 (ip), vehicle: saline); 87 % of control and 491 % of control (endpoint: mean survival time, dose: 81.0 mg/kg/injection, schedule: Q01DX001 (ip), vehicle: saline); 94 % of control and 284 % of control (endpoint: mean survival time, dose: 120.0 mg/kg/injection, schedule: Q01DX001 (ip), vehicle: saline).
In the case of `CN(C)CCN1C(=O)c2cccc3cc([N+](=O)[O-])cc(c23)C1=O`, the T/C (endpoint: mean survival time, dose: 6.0 mg/kg/injection, schedule: Q01DX009 (ip), vehicle: saline with Tween-80) is 115 % of control and 160 % of control.
Regarding `CCOC(=O)C(CC(C)C)NC(=O)C(Cc1ccc(N(CCCl)CCCl)cc1)NC(C)=O` (stereo not drawn), the T/C is, setting by setting: (endpoint: mean survival time, dose: 16.0 mg/kg/injection, schedule: Q04DX003 (ip), vehicle: saline with Tween-80) 106 % of control, 107 % of control, 114 % of control [sample A] and 94 % of control [sample B] and 124 % of control [sample C]; (endpoint: mean survival time, dose: 32.0 mg/kg/injection, schedule: Q04DX003 (ip), vehicle: saline with Tween-80) 107 % of control, 116 % of control [sample A] and 92 % of control [sample B] and 153 % of control [sample C]; (endpoint: mean survival time, dose: 64.0 mg/kg/injection, schedule: Q04DX003 (ip), vehicle: saline with Tween-80) 115 % of control, 158 % of control [sample A] and 97 % of control [sample B]; (endpoint: mean survival time, dose: 256.0 mg/kg/injection, schedule: Q01DX001 (ip), vehicle: saline with Tween-80) 150 % of control [sample A] and 106 % of control [sample B].
As to `S=P(N1CC1)(N1CC1)N1CC1`, the T/C (endpoint: mean survival time, dose: 22.4 mg/kg/injection, schedule: Q01DX001 (ip), vehicle: saline) is 104 % of control and 152 % of control.
Turning to `O=C(NCCCN1CC1)C(=O)NCCCN1CC1`, the T/C (endpoint: mean survival time, dose: 6.25 mg/kg/injection, schedule: Q01DX009 (ip), vehicle: saline) was 113 % of control and 166 % of control.
`COC(=O)Nc1nc2ccc(C3(c4ccc(F)cc4)OCCO3)cc2[nH]1`: the T/C (endpoint: mean survival time, dose: 50.0 mg/kg/injection, schedule: Q01DX009 (ip), vehicle: saline) was 108 % of control, 120 % of control, 166 % of control.
Take `CCNCC(=O)O[C@]1(CC)C(=O)OCc2c1cc1n(c2=O)Cc2cc3ccccc3nc2-1`: the T/C (endpoint: median survival time, dose: 60.0 mg/kg/injection, schedule: Q04DX002 (ip), vehicle: saline) is 107 % of control and 172 % of control.
As to `O=NN(CCCl)C(=O)Oc1cc(Cl)c(Cl)cc1Cl`, the T/C runs as follows: (endpoint: median survival time, dose: 25.0 mg/kg/injection, schedule: Q01DX009 (ip), vehicle: Klucel (hydroxypropylcellulose) (HPC)) 120 % of control and 164 % of control; (endpoint: median survival time, dose: 100.0 mg/kg/injection, schedule: Q01DX009 (ip), vehicle: Klucel (hydroxypropylcellulose) (HPC)) 90 % of control and 150 % of control.
With `COc1ccc(OC)c(NC(=O)Nc2cc(Cl)c(OC)cc2OC)c1`, the T/C (endpoint: mean survival time, dose: 400.0 mg/kg/injection, schedule: Q01DX009 (ip), vehicle: saline with Tween-80) is 94 % of control and 157 % of control.
Consider `O=C(O)c1[nH]c(=O)[nH]c(=O)c1F`, for which the T/C (endpoint: mean survival time, dose: 10.0 mg/kg/injection, schedule: Q01DX009 (ip), vehicle: saline) was 124 % of control and 166 % of control.
In the case of `[Cl][Pt+2][Cl].[NH-]CC1(C[NH-])CCC1`, for the setting “endpoint: mean survival time, dose: 6.25 mg/kg/injection, schedule: Q04DX003 (ip), vehicle: saline”, the T/C is 111 % of control and 167 % of control.
Regarding `Cc1c2ccncc2c(C)c2c1[nH]c1ccc(O)cc12`, under “endpoint: mean survival time, dose: 25.0 mg/kg/injection, schedule: Q04DX003 (ip), vehicle: water”, the T/C was 114 % of control and 159 % of control.
As for `Cc1ccc(NCC2(/N=C/c3ccccc3)OC(CO)C(O)C2O)cc1` (stereo not drawn), the T/C (endpoint: mean survival time, dose: 400.0 mg/kg/injection, schedule: Q01DX009 (ip), vehicle: Klucel (hydroxypropylcellulose) (HPC)) was 124 % of control and 155 % of control.
Turning to `[Cl][Pt+2][Cl].[NH-]c1ccc(Cl)cc1[NH-]`, for the setting “endpoint: mean survival time, dose: 20.0 mg/kg/injection, schedule: Q01DX009 (ip), vehicle: saline with Tween-80”, the T/C is 122 % of control and 181 % of control.
As to `O=c1n[n+]([O-])ccn1C1OC(CO)C(O)C1O` (stereo not drawn), the T/C (endpoint: median survival time, dose: 450.0 mg/kg/injection, schedule: Q01DX009 (ip), vehicle: saline) is 116 % of control and 168 % of control.
On to `Cc1ccc(S(=O)(=O)N/N=C/C(=O)O)cc1`, for which the T/C (endpoint: mean survival time, dose: 50.0 mg/kg/injection, schedule: Q01DX009 (ip), vehicle: other) was 118 % of control and 153 % of control.
Regarding `NC(=S)N/N=C/c1ccc(O)cn1`, the T/C (endpoint: mean survival time, dose: 100.0 mg/kg/injection, schedule: Q01DX009 (ip), vehicle: saline) was 109 % of control, 179 % of control, 200 % of control.
Take `CC(=O)Nc1cccc(N=NN(C)C)c1`: for the setting “endpoint: mean survival time, dose: 100.0 mg/kg/injection, schedule: Q01DX009 (ip), vehicle: Klucel (hydroxypropylcellulose) (HPC)”, the T/C was 122 % of control and 164 % of control.
